Assay results taken from PubChem BioAssay AID624296 (National Center for Advancing Translational Sciences (NCATS), 2012).
Hit rate of the full screen: of about 350,000 compounds, about 9,900 (2.8%) were called active. This list was built around the results that the source calls inconclusive (neither active nor inactive); the mix of calls is not that of the screen. The call rests on the fitted dose curve; in most records, active means well fitted activation curve with a large enough effect; inconclusive means small, poorly fitted or top-dose-only effect; inactive means no such curve, though single readings can be large or run the other way. No potency is given beside an inconclusive call; the fits are too rough.

Assay: A quantitative high throughput screen for small molecules that induce DNA re-replication in MCF 10a normal breast cells. Further: nearly all actives have a fitted effect of over 50% in size. On activity, positive = re-replication: % of control where 0% means no effect.
Conditions: MCF 10A DNA re-replication, Hoechst nuclear intensity, 48 h; activity, positive = re-replication: at 46.1 µM (top of the series)
Potency means the concentration at half of the fitted maximal effect; tags describe the fitted curve by direction and shape.

Compound | Potency | activity, positive = re-replication
Cc1ccc(CS(=O)(=O)CCC(=O)NCC2CCCO2)cc1 (stereo not drawn) | inconclusive [activator, single point] | 
Cc1ccc(CSc2ncn(-c3ccccc3)n2)cc1 |  | inactive: -2.56%
COc1ccccc1CCNC(=O)c1cc(-c2ccncc2)nc2ccc(Br)cc12 | inconclusive [activator, single point] | 
CC(C)(C)c1csc(NC(=O)c2ccc3nccnc3c2)n1 | inconclusive [activator, single point] | 
CCn1cc(C(=O)OCC(=O)c2cc(C)n(-c3ccccc3)c2C)c(=O)c2ccc(C)nc21 |  | inactive: -8.09%
FC(F)(F)c1cccc(NCc2n[nH]c(=S)n2C2CCCCC2)c1 | inconclusive [activator, single point] | 
COc1cc(NC(=O)C2CCC(CNc3c(N4CCC(C)CC4)c(=O)c3=O)CC2)cc(OC)c1 (stereo not drawn) | inactive | 
Cc1ccc(Cl)cc1NC(=S)NCCCSC1CCCCC1 | inconclusive [activator, partial curve, poor fit] | 
O=C(OCC(=O)N(C1CCCCC1)C1CCCCC1)c1ccc(Cl)nc1 |  | inactive: 4.57%
CCn1cc(C(=O)O)c(=O)c2cnc(N3CCN(C(=S)NC(=O)c4ccc(F)c(F)c4)CC3)nc21 |  | inactive: -30.6%
Cc1cc(C)n(-c2nc3ccccc3c(=O)n2OCC(=O)Nc2c(C)cccc2C)n1 | inconclusive [activator, single point] | 
Cc1cc(C)n(-c2cc(C(C)(C)C)nc3c(-c4ccccc4)cnn23)n1 | active: 20.6 µM | 
CN(c1cccc(NC(=O)CN(c2cccc(Cl)c2)S(=O)(=O)c2ccc(Cl)cc2)c1)S(C)(=O)=O |  | inactive: 17.2%
NNc1nc2ccc(F)cc2s1 | inconclusive [activator, single point] | 
CCC(C)n1c(OC)nc2c1c(=O)n(C)c(=O)n2C (stereo not drawn) | inconclusive [activator, single point] | 
COc1ccccc1N1CCN(C(=O)c2cc3cc(F)ccc3[nH]2)CC1 | inconclusive [activator, partial curve, poor fit] | 
C=CCn1cnc2c(c1=O)c1nc3ccccc3nc1n2/N=C/c1cc(OC)c(OC)c(OC)c1 | inconclusive [activator, full curve] | 
COc1ccc(C(=O)N2CCN(C3CCC(c4ccccc4)CC3)CC2)cc1OC (stereo not drawn) | inconclusive [activator, partial curve, poor fit] | 
COc1ccc(NC(=O)NC23CC4(C)CC(C)(CC(C)(C4)C2)C3)cc1 | inconclusive [activator, single point] | 
CC(=O)Nc1ccc(NC(=O)CSc2ncc(C(=O)Nc3ccccc3)c(=O)n2C)cc1 | inconclusive [activator, partial curve, poor fit] | 
O=C(Nc1ccccc1)c1ccccc1NC(=O)c1ccccc1C(=O)O | inconclusive [activator, partial curve, poor fit] | 
COc1ccccc1-c1ccc2nnc(SCC(=O)N3CCCC3)n2n1 | inconclusive [activator, full curve, poor fit] | 

Compound | Potency | activity, positive = re-replication
CCC(C)[C@H](NC(=O)N1CCN(c2cccc(C(F)(F)F)c2)CC1)C(=O)OC (stereo partly drawn) |  | inactive: 25.5%
CC(C)OCCCN1CN(S(=O)(=O)c2ccc(Cl)cc2)c2nc3ccccc3nc21 | inconclusive [activator, partial curve, poor fit] | 
COc1ccc(/C=C2\CCc3c2nc2ccccc2c3C(=O)O)cc1OC | inconclusive [activator, single point] | 
CCc1ccc2c(c1)C(=O)C(=O)N2CCS(=O)(=O)c1ccccc1 |  | inactive: -8.31%
COc1ccc(/C=C/C(=O)c2ccccc2)cc1COc1ccccc1F | inconclusive [activator, partial curve] | 
O=C(COC(=O)CNC(=O)c1ccc(Br)o1)Nc1ccccc1OC(F)F |  | inactive: 3.95%
CCOC(=O)C1=C(C(=O)OCC)N(CC)CCC1=O | inconclusive [activator, full curve, poor fit] | 
Cc1nccn1-c1ccc(C(F)(F)F)cc1[N+](=O)[O-] |  | inactive: -12.5%
COc1ccc(CNC(=O)COc2cc(O)c3c(c2)OC(C)(C)CC3=O)c(OC)c1 | inconclusive [activator, partial curve, poor fit] | 
Cc1cc(=O)n(Cc2ccc(OC(C)C)cc2)c(=S)[nH]1 | inconclusive [activator, single point] | 
Cc1nc(NCC2CCCO2)nc2c1C(=O)CC(C)(C)C2 (stereo not drawn) | inconclusive [activator, partial curve, poor fit] | 
CC(OC(=O)c1cccc(S(=O)(=O)Nc2cccc(C(F)(F)F)c2)c1)C(=O)Nc1ccc2c(c1)OCCO2 (stereo not drawn) | inconclusive [activator, single point] | 
CCOC(=O)c1c(-c2ccc(C)o2)csc1NC(=O)CN(C)CC(=O)Nc1ccc(C)cc1 | inconclusive [activator, partial curve, poor fit] | 
N#CCCN(Cc1ccccc1)C(=O)c1nccnc1C(=O)O |  | inactive: 0.216%
Cc1ccnc(Nc2nc(-c3ccc(F)cc3)cs2)c1 | inconclusive [activator, single point] | 
O=c1[nH]cc(S(=O)(=O)N2CCOCC2)c(=O)[nH]1 |  | inactive: 39.6%
COC(=O)c1sc2ccccc2c1-n1cccc1C(=O)C(=O)Nc1ccc(Cl)cc1 |  | inactive: 1.97%
COc1cc2ncnc(NCc3cccc(Cl)c3)c2cc1OC | inconclusive [activator, single point] | 
COc1cc2c(cc1OC)C(c1cc3cc4c(cc3[nH]c1=O)OCO4)N(C(=O)C(C)C)CC2 (stereo not drawn) | active: 8.2 µM | 
CCOc1ccc(Cn2nnc(C(=O)NCCc3ccc(Cl)cc3)c2N)cc1 | inconclusive [activator, partial curve] | 
O=C(c1ccnc(Cl)c1)N1CCCC(Nc2ccc(F)cc2)C1 (stereo not drawn) | inconclusive [activator, partial curve, poor fit] | 
